Results taken from the RNAGym collection of RNA variant scans (doi:10.1093/nar/gkz1192).
Read counts are not given, so values of variants with three or more changes are uncertain.

B1: CPEB3 Ribozyme (parent)
chain: UAACAGGGGGCCACAGCAGAAGCGUUCACGUCGCAGCCCCUGUCAGAUUCUGGUGAAUCUGCGAAUUCUGCUGUAUAUCUC

Variants of: B1
Test: self-cleavage, relative activity (ratio to wild type); higher = more cleavage; in vitro, sequencing
Method in brief: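 Relative activity was defined as the cleaved/total read fraction for a variant divided by the same fraction for the unmutated ribozyme. CPEB3 self-cleaving ribozyme libraries were made by rounds of error-prone PCR, barcoded, and transcribed in vitro with T7 RNA polymerase for 5 hours at 37°C, and cleavage ran through transcription plus a 15 min DNase I step before EDTA. Illumina sequencing of template-switched reverse transcripts gave the reads, and DNA sequencing mapped the barcodes. Averages come from three batches, using variants with at least 5 reads.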

Q: For UAACAGGGGGCCGCAGCAGAAGUGUUCACGUCGCAGCCCUUGUAAGAUUGUGGUGAAUCUGCGAAUUCAGCUGUACAUCUC [A13G C23U C40U C44A C50G U69A U76C], which self-cleavage is on record?
A: The self-cleavage was 0.04.

Q: For UAACAGGGGGCCGCAGCAGAAGCGUUAACGUCGCAGCCCCUGUCAGAUUCUGGUGAAUCUGCGAAUUCUGCUGUAUACCUC [A13G C27A U78C], which self-cleavage is on record?
A: The self-cleavage was 0.21.

Q: For UAACAGGGGGCCGCAGCAGAAGCGUUGACGUCGCAGCCCCUGUCAGAUUCUGGUGAAUCUGCGAAUUGUGCUGUGUACCUC [A13G C27G C68G A75G U78C], which self-cleavage is on record?
A: Its self-cleavage is 0.1.

Q: For UAACAGGGGGCCGCAGCAGAAGCGUUUCCGUCGCAGCCCCUGUCAGAUUCUGGUGAAUCUGAGAAUUCUGCUGUAUAUCUC [A13G C27U A28C C62A], which self-cleavage is on record?
A: Its self-cleavage is 0.11.

Q: With UAACAGGGGGCCGCAGCAGAAGCGUUUACGUCGCAGCCCCUGUCAGAUUCUGGUGCAUCUGCGAAUUCUGCUGUAUAUCUC [A13G C27U A56C] as the variant, how does the self-cleavage read?
A: The self-cleavage was 0.14.

Q: Which self-cleavage does the source give for UAACAGGGGGCCGCAGCAGAAGCGUUUACGUCGCAGCCCCGGUCAGAUUCUGGCGAAUCUGCGAAUUCUGCAGUAUACCCC [A13G C27U U41G U54C U72A U78C U80C] here?
A: The self-cleavage was 0.06.

Q: With UAACAGGGGGCCGCAGCAGAAGCGUUUACGUCGCAGCCCCUGUCAGAUUCUGGUGAAUCUGCGAACUCUGCUGUAUAUCUC [A13G C27U U66C] as the variant, how does the self-cleavage read?
A: Its self-cleavage is 0.25.

Q: With UAACAGGGGGCCGCAGCAGAAGCGUUCAGGUCGCAGCCCCUGUCAGAUUCUGGUGAAUCUGCGAAUUCUGCUGUAUACCUC [A13G C29G U78C] as the variant, how does the self-cleavage read?
A: Its self-cleavage is 0.28.

Q: Which self-cleavage does the source give for UAACAGGGGGCCGCAGCAGAAGCGUUCAUGUCGCAGCCCCUGUCAGAUUCUUGUGAAUCUGCGAAUUCUGCUAUAUACCUC [A13G C29U G52U G73A U78C] here?
A: The self-cleavage was 0.77.

Q: With UAACAGGGGGCCGCAGCAGAAGCGUUCAUGUCGCAGCCCCUGUCAGAUUCCGGCGAAUCUGCGAUUUCUGCUGUAUAUCUC [A13G C29U U51C U54C A65U] as the variant, how does the self-cleavage read?
A: The self-cleavage was 0.1.

Q: For UAACAGGGGGCCGCAGCAGAAGCGUUCACGUUGCAGCCCCUGUCGGAUUCUGGUGAAUCUGCGAGCUCUGCUGUAUAUCUC [A13G C32U A45G A65G U66C], which self-cleavage is on record?
A: The self-cleavage was 0.21.

Q: For UAACAGGGGGCCGCAGCAGAAGCGUUCACGUUGUAGCCCCUGUCAGAUUCUGGUGAAUCUGCGAAUCCUGCUGUAUAUCUC [A13G C32U C34U U67C], which self-cleavage is on record?
A: Its self-cleavage is 0.11.

Q: With UAACAGGGGGCCGCAGCAGAAGCGUUCACGUUGCAGCCCCUGUCAGAAUCUGGUGAAUCUGCGAAUUCUGCUGUAUACCUC [A13G C32U U48A U78C] as the variant, how does the self-cleavage read?
A: The self-cleavage was 0.06.

Q: With UAACAGGGGGCCGCAGCAGAAGCGUUCACGUUGCAGCCCCUGUCAGAUUCUGGUGAAUCUGCGAAUUCUGCUGAAUGUCUC [A13G C32U U74A A77G] as the variant, how does the self-cleavage read?
A: Its self-cleavage is 0.08.

Q: Which self-cleavage does the source give for UAACAGGGGGCCGCAGCAGAAGCGUUCACGUCGUAGCCCCUGUCAGAUUCCGGAGAAUCUGCGAAUUCUGCUGUAUAUCUC [A13G C34U U51C U54A] here?
A: Its self-cleavage is 0.48.

Q: Which self-cleavage does the source give for UAACAGGGGGCCGCAGCAGAAGCGUUCACGUCGCAGACCCUGCCAGAUUCUGGUGAAUCUGCGAAUUCUGCUGUAUAUCUC [A13G C37A U43C] here?
A: Its self-cleavage is 0.16.

Q: Which self-cleavage does the source give for UAACAGGGGGCCGCAGCAGAAGCGUUCACGUCGCAGGCCCUGUCAGAUUCUGGUGUAUCUGCGAAUUCUGCUGCAUAUCCC [A13G C37G A56U U74C U80C] here?
A: The self-cleavage was 0.09.

Q: For UAACAGGGGGCCGCAGCAGAAGCGUUCACGUCGCAGGCCCUGCCAGAUUCUGGUGAUUCUGCGAAUUCUGCAGUACAUCUC [A13G C37G U43C A57U U72A U76C], which self-cleavage is on record?
A: The self-cleavage was 0.09.

Q: With UAACAGGGGGCCGCAGCAGAAGCGUUCACGUCGCAGUCCCUGUCAGAUUCUGGUGAAUCUGCGAAUUCUGCUGUAUUUCUC [A13G C37U A77U] as the variant, how does the self-cleavage read?
A: Its self-cleavage is 1.03.

Q: With UAACAGGGGGCCGCAGCAGAAGCGUUCACGUCGCAGUCCCUGUCAGAUUCUGGUGAAUCUGCGAACUCUGCUGUAUAUCAC [A13G C37U U66C U80A] as the variant, how does the self-cleavage read?
A: Its self-cleavage is 0.09.

Q: With UAACAGGGGGCCGCAGCAGAAGCGUUCACGUCGCAGCACCAGUCAGAUUCCGGUGAAUCUGCGAAUUCUGCUGUAUAUCUC [A13G C38A U41A U51C] as the variant, how does the self-cleavage read?
A: Its self-cleavage is 0.13.

Q: For UAACAGGGGGCCGCAGCAGAAGCGUUCACGUCGCAGCUCCUGUCAGAUUCUGGUGAGUCCGCGUAUUCUGCCGUAUAUCUC [A13G C38U A57G U60C A64U U72C], which self-cleavage is on record?
A: The self-cleavage was 0.07.

Q: Which self-cleavage does the source give for UAACAGGGGGCCGCAGCAGAAGCGUUCACGUCGCAGCCUCUGUCAGAUUCUGGAGAAUCGGCGAAUUCUGCUGUACAUCUC [A13G C39U U54A U60G U76C] here?
A: The self-cleavage was 0.16.

Q: Which self-cleavage does the source give for UAACAGGGGGCCGCAGCAGAAGCGUUCACGUCGCAGCCCUAGUCAGAUUCUGGUGAAUCUGCGAAGACUGCUGUAUUUCUC [A13G C40U U41A U66G U67A A77U] here?
A: The self-cleavage was 0.05.

Q: For UAACAGGGGGCCGCAGCAGAAGCGUUCACGUCGCAGCCCUUGCCACAUUCUGGUGAACCUGCGAAUUCUGCUGUAUAUCUC [A13G C40U U43C G46C U58C], which self-cleavage is on record?
A: The self-cleavage was 0.07.

Q: For UAACAGGGGGCCGCAGCAGAAGCGUUCACGUCGCAGCCCUUGUCAGAUACUGGUGAAUCUGCGAAUUCUGCUGUAUACCUC [A13G C40U U49A U78C], which self-cleavage is on record?
A: Its self-cleavage is 0.18.

Q: For UAACAGGGGGCCGCAGCAGAAGCGUUCACGUCGCAGCCCCUGUCAGAUUCUGGUGAAUCUGUGAAUUCUGCUGUAUAUCCC [A13G C62U U80C], which self-cleavage is on record?
A: Its self-cleavage is 0.55.

Q: With UAACAGGGGGCCGCAACAGAAGCGUUCGCGUCGCAGCCCCUGCCAGAUUCUGGUGAAUCCGCGAAUUCUGCUGUAUACCUC [A13G G16A A28G U43C U60C U78C] as the variant, how does the self-cleavage read?
A: Its self-cleavage is 0.15.

Q: Which self-cleavage does the source give for UAACAGGGGGCCGCAACAGAAGCGUUCACGUCGCAGCCCCUGUCAGAUUCUGGUGAGUCUGCGAAUUCUGCUGUAUGUCUC [A13G G16A A57G A77G] here?
A: The self-cleavage was 0.13.

Q: With UAACAGGGGGCCGCAACAGAAGCGUUCACGUCGCAGCCCCUGUCAGAUUCUGGUCAAUCUGCGAAUUCUGCAGUAUAUCUC [A13G G16A G55C U72A] as the variant, how does the self-cleavage read?
A: The self-cleavage was 0.08.

Q: With UAACAGGGGGCCGCAACAGAAGCGCUCACGUCGCAGCCCCUGUCAGAUUCUGGUGAAUCUGCGAAUUCUUCUGUAUAUCUC [A13G G16A U25C G70U] as the variant, how does the self-cleavage read?
A: The self-cleavage was 0.29.

Q: Which self-cleavage does the source give for UAACAGGGGGCCGCAGCAGAAACGUUCACGUCGCAGCCCCUGUCAGAUUCUGGUGAAUCUGCGAAUUCUGCCGUAUAUCUC [A13G G22A U72C] here?
A: Its self-cleavage is 0.09.

Q: For UAACAGGGGGCCGCAGCAGAACCGUUCACGUCGCAGCCCCUGUCGGAUUCUGGUGAAUCUGCGAAUUCUGCUGUUUAUCUC [A13G G22C A45G A75U], which self-cleavage is on record?
A: Its self-cleavage is 0.03.

Q: For UAACAGGGGGCCGCAGCAGAAUCGUUCUCGUCGCAGCCCCUGUCAGAUUCUGGUGAAUCUGCGAAUUCUGCUGUAUUUCUC [A13G G22U A28U A77U], which self-cleavage is on record?
A: The self-cleavage was 0.08.
